A lower IC50 marks a more sensitive line; where the fit passes the top or lowest dose, that dose stands as a limit. AUC sums up the same curve from the lowest dose to the 256-fold higher top dose; it is 1 without any effect and falls as sensitivity rises. For part of these data: Any top dose called inferred was calculated from the reported fits. For part of these data: Where an entry number is given, a second screen of the drug exists; the two often differ.
Assays:
Experiment in all cases: Viability of human cancer cell lines after 72 h of drug (GDSC screen)
5-Fluorouracil = compound: O=c1[nH]cc(F)c(=O)[nH]1 [5-Fluorouracil]; conditions: top dose 32 µM; top dose inferred
Experimental: (§1)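 Human cancer cell lines in 384-well plates, medium with 10% serum, drug for 72 h over a 256-fold dose range (nine 2-fold or five 4-fold steps up to the top dose). Adherent lines were fixed and stained with the nucleic acid dye Syto60, suspension lines read with resazurin; signal relative to control wells, capped at 0 and 100%. One two-parameter sigmoid per drug and line, fitted in a mixed model over all curves with the slope shared within a line.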

OSU-03012 = compound: NCC(=O)Nc1ccc(-n2nc(C(F)(F)F)cc2-c2ccc3c(ccc4ccccc43)c2)cc1 [OSU-03012]; conditions: top dose 16 µM; top dose inferred
Experimental: as §1

RDEA119 = compound: COc1cc(F)c(F)c(Nc2ccc(I)cc2F)c1NS(=O)(=O)C1(C[C@H](O)CO)CC1 [RDEA119]; conditions: top dose 5 µM, top dose inferred
Experimental: as §1

AC220 = compound: CC(C)(C)c1cc(NC(=O)Nc2ccc(-c3cn4c(n3)sc3cc(OCCN5CCOCC5)ccc34)cc2)no1 [AC220]; conditions: top dose 1.024 µM; top dose inferred
Experimental: as §1

QS11 = compound: OC[C@H](Cc1ccccc1)Nc1nc(Oc2ccc3c(c2)CCC3)nc2c1ncn2Cc1ccc(-c2ccccc2)cc1 [QS11]; conditions: top dose 10.24 µM
Experimental: as §1

JNK-9L = compound: Fc1cc(-c2ccnc(Nc3ccc(-n4cnc(N5CCOCC5)n4)cc3)n2)cc(N2CCOCC2)c1 [JNK-9L]; conditions: top dose 5.12 µM; top dose inferred
Experimental: as §1

CUDC-101 = compound: C#Cc1cccc(Nc2ncnc3cc(OC)c(OCCCCCCC(=O)NO)cc23)c1 [CUDC-101]; conditions: top dose 5.12 µM; top dose inferred
Experimental: as §1

Cell Line	AUC (5-Fluorouracil)	IC50 (5-Fluorouracil) [nM]	AUC (OSU-03012)	IC50 (OSU-03012) [nM]	AUC (RDEA119; screen: GDSC drug entry 1014)	IC50 (RDEA119; screen: GDSC drug entry 1014) [nM]	AUC (RDEA119; screen: GDSC drug entry 1526)	IC50 (RDEA119; screen: GDSC drug entry 1526) [nM]	AUC (AC220)	IC50 (AC220) [nM]	AUC (QS11)	IC50 (QS11) [nM]	AUC (JNK-9L)	IC50 (JNK-9L) [nM]	AUC (CUDC-101)	IC50 (CUDC-101) [nM]
SK-LMS-1 (soft tissue, adherent)	0.735	8970	0.524	1160	0.696	1070	0.687	1020	0.987	> 1020	0.725	2690	0.569	488	0.391	163
RCM-1 (large intestine, adherent)	0.937	> 32000	0.866	> 16000	0.416	175	0.685	1160	0.985	> 1020	0.98	> 10200	0.642	866	0.795	2960
JM1 (B-cell lymphoma, suspension)	0.852	19500	0.674	2830	0.991	> 5000	0.989	> 5000	0.99	> 1020	0.902	10000	0.558	451	0.238	64.5
KYSE-410 (oesophagus, adherent)	0.829	21800	0.585	1740	0.709	1270	–	–	0.984	> 1020	0.818	6290	0.597	601	0.733	1560
NCI-H1836 (small cell lung carcinoma, suspension)	0.872	> 32000	0.863	> 16000	0.987	> 5000	0.986	> 5000	0.984	> 1020	0.967	> 10200	0.805	2890	0.537	409
CAL-120 (breast, adherent)	0.85	> 32000	0.822	13100	0.846	> 5000	0.893	> 5000	0.974	> 1020	0.981	> 10200	0.725	1710	0.696	1350
RPMI-8866 (chronic myeloid leukaemia, suspension)	0.47	1670	0.783	6220	0.889	4990	0.964	> 5000	0.988	> 1020	0.968	> 10200	0.673	933	0.318	104
ES8 (Ewing sarcoma, adherent)	0.521	2260	0.788	6440	0.978	> 5000	0.97	> 5000	0.95	> 1020	0.968	> 10200	0.359	–	0.357	133
SNU-398 (liver, adherent)	0.783	14100	0.606	1970	–	–	0.843	3750	0.964	> 1020	0.932	> 10200	0.201	39.9	0.499	319
RERF-LC-KJ (lung adenocarcinoma, adherent)	0.971	> 32000	0.824	9880	0.899	> 5000	0.912	> 5000	0.967	> 1020	0.848	8000	0.691	1120	0.813	2870
no-10 (glioma, adherent)	0.945	> 32000	0.783	8360	–	–	0.878	> 5000	0.981	> 1020	0.963	> 10200	0.666	1030	0.645	888
ES-2 (ovary, adherent)	0.623	4160	0.865	11400	0.667	856	0.844	2950	0.99	> 1020	0.977	> 10200	0.809	2290	0.537	397
COR-L105 (lung adenocarcinoma, adherent)	0.757	13300	0.72	4900	–	–	0.808	3310	0.977	> 1020	0.858	> 10200	0.482	282	0.336	101
NCI-H2085 (lung adenocarcinoma, adherent)	0.716	8630	0.724	4600	0.872	> 5000	0.921	> 5000	0.975	> 1020	0.986	> 10200	0.644	830	0.721	1440
KU812 (chronic myeloid leukaemia, suspension)	0.977	> 32000	0.721	3970	0.405	176	0.459	244	0.988	> 1020	0.5	–	0.512	343	0.022	< 20
HC-1 (hairy cell leukaemia, suspension)	0.467	1630	0.68	3120	0.914	> 5000	0.861	3950	0.931	> 1020	0.925	> 10200	0.456	244	0.351	126
NCI-H647 (non-small cell lung carcinoma, adherent)	0.828	20900	0.779	6860	0.847	3950	–	–	0.973	> 1020	0.895	> 10200	0.653	868	0.666	948

Cell Line	AUC (5-Fluorouracil)	IC50 (5-Fluorouracil) [nM]	AUC (OSU-03012)	IC50 (OSU-03012) [nM]	AUC (RDEA119; screen: GDSC drug entry 1014)	IC50 (RDEA119; screen: GDSC drug entry 1014) [nM]	AUC (RDEA119; screen: GDSC drug entry 1526)	IC50 (RDEA119; screen: GDSC drug entry 1526) [nM]	AUC (AC220)	IC50 (AC220) [nM]	AUC (QS11)	IC50 (QS11) [nM]	AUC (JNK-9L)	IC50 (JNK-9L) [nM]	AUC (CUDC-101)	IC50 (CUDC-101) [nM]
697 (lymphoblastic leukaemia, suspension)	0.504	2050	0.59	1680	0.932	> 5000	–	–	0.951	> 1020	0.783	3440	0.544	411	0.294	96.5
RT-112 (bladder, adherent)	0.763	12400	0.547	1350	–	–	0.772	2070	0.979	> 1020	0.828	6990	0.541	417	0.537	406
CAS-1 (glioma, adherent)	0.982	> 32000	0.778	9070	0.91	> 5000	0.84	> 5000	0.956	> 1020	0.965	> 10200	0.674	1180	0.754	2320
H513 (mesothelioma, semi-adherent)	0.972	> 32000	0.842	15100	0.947	> 5000	0.904	> 5000	0.973	> 1020	0.986	> 10200	0.837	4540	0.933	> 5120
HT55 (large intestine, adherent)	0.984	> 32000	0.782	6640	0.784	2120	0.841	3440	0.99	> 1020	0.99	> 10200	0.903	> 5120	0.7	1170
HN (head and neck, adherent)	0.978	> 32000	0.6	1840	0.657	825	0.698	1080	0.988	> 1020	0.902	> 10200	0.845	3350	0.752	1600
HA7-RCC (kidney, adherent)	0.98	> 32000	0.697	3830	0.891	> 5000	0.957	> 5000	0.985	> 1020	0.932	> 10200	0.61	664	0.978	> 5120
SW982 (soft tissue, adherent)	0.835	21900	0.699	3690	0.516	346	0.71	1250	0.984	> 1020	0.908	> 10200	0.393	161	0.587	557
H2591 (mesothelioma, adherent)	0.921	> 32000	0.86	> 16000	0.73	1750	0.921	> 5000	0.98	> 1020	0.982	> 10200	0.631	821	0.787	2980
JURL-MK1 (chronic myeloid leukaemia, suspension)	0.593	3600	0.818	8940	0.197	39.6	0.609	623	0.961	> 1020	0.863	8820	0.646	810	0.646	812
Hs939-T (melanoma, adherent)	0.974	> 32000	0.846	13400	0.593	578	0.635	768	0.986	> 1020	0.908	> 10200	0.558	468	0.747	1780
Ca-Ski (cervix, adherent)	0.794	16800	0.777	7240	0.863	> 5000	0.917	> 5000	0.955	> 1020	0.974	> 10200	0.599	620	0.395	159
NCI-H1648 (lung adenocarcinoma, adherent)	0.802	16900	0.735	4930	0.933	> 5000	0.93	> 5000	0.965	> 1020	0.953	> 10200	0.561	–	0.473	269
MFE-296 (endometrium, adherent)	0.961	> 32000	0.703	3930	0.884	> 5000	0.881	> 5000	0.985	> 1020	0.957	> 10200	0.416	185	0.951	> 5120
HCC38 (breast, adherent)	0.72	8930	0.839	12200	0.968	> 5000	0.972	> 5000	0.978	> 1020	0.985	> 10200	0.747	1750	0.544	426
SK-N-AS (neuroblastoma, adherent)	0.908	> 32000	0.838	13300	0.607	645	–	–	0.97	> 1020	0.964	> 10200	0.72	1500	0.439	213
G-401 (kidney, adherent)	0.54	2600	0.668	3100	0.776	2200	0.835	3770	0.979	> 1020	0.937	> 10200	0.477	276	0.605	639
